# According to article PMC4336329 (PLoS ONE, 2015):
# Hit rate of the full screen: of about 310,000 compounds, about 14,000 (4.5%) showed an effect of 50% or more. Effects have a minus sign here. This is one part of the list.
# Target: human ether-à-go-go-related gene (hERG) potassium channel (human, UniProt Q12809)
# Test: primary screen, population patch clamp on CHO cells stably expressing hERG
# 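Note: peak tail current of the secondary pulse compared with the same well before compound.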
# Chain of human ether-à-go-go-related gene (hERG) potassium channel (Q12809 whole entry, looked up): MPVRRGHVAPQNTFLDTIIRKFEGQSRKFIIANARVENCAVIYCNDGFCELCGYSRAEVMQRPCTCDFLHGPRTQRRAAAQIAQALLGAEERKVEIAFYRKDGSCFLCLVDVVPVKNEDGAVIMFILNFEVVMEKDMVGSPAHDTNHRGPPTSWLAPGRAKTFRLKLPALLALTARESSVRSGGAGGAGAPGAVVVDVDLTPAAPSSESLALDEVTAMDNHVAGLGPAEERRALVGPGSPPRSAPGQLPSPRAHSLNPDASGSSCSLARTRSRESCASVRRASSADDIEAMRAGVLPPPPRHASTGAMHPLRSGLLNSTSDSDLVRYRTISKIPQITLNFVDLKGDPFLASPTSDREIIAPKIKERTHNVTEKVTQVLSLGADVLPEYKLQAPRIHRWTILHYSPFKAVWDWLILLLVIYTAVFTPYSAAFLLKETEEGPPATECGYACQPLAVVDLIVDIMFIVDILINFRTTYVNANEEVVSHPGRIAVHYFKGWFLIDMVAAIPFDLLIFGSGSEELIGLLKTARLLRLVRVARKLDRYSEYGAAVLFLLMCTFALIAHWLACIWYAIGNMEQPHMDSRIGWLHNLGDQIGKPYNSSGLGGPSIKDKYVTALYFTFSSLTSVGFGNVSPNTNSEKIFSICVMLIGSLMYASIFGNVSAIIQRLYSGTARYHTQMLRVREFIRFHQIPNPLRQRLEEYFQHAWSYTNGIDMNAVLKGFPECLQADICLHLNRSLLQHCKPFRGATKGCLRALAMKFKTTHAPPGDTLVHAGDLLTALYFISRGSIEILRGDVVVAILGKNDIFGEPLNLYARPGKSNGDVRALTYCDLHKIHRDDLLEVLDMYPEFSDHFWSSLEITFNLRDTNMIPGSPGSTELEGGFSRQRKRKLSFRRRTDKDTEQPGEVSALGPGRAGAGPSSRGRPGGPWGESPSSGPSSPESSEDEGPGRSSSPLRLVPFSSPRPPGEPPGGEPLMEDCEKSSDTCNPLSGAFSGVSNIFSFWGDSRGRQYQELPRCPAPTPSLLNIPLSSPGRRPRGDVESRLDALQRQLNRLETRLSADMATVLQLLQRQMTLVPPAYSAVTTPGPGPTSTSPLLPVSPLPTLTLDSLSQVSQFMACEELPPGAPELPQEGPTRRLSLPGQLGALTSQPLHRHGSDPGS
row,Structure (SMILES),"hERG current change (%, negative = inhibition) at 10uM"
1,NS(=O)(=O)c1ccc(S(=O)(=O)NCCc2ccccc2)cc1,7.05%
2,Cc1ccc(NC(=O)NCCCc2ccccc2)cc1,-7.34%
3,COc1ccc2oc(C(F)(F)C(F)F)cc(=O)c2c1,1.41%
4,O=C(CN1C(=O)c2ccccc2C1=O)Nc1nccs1,16.2%
5,CC1CCN(S(=O)(=O)c2ccc(NC(=O)C3CSC4(C)CCC(=O)N34)cc2)CC1 (centres unmarked),-6.34%
6,CN(C)c1cccc2c(/C=N/O)ccc(N(C)C)c12,-10.3%
7,Cc1ccc(S(=O)(=O)N2CCN(CC(O)COc3ccccc3)CC2)cc1 (centres unmarked),-16.2%
8,O=C(CCN1C(=O)C2C3C=CC(C3)C2C1=O)NCc1cccnc1 (centres unmarked),14.2%
9,Cc1cc(C)n2nc(N)c(N=Nc3ccc(Cl)cc3)c2n1,-13.8%
10,CC1(C)CC(N(Cc2ccc(F)cc2)C(=O)c2ccc(F)cc2)CCO1 (centres unmarked),-14.4%
11,O=C(CNCCc1ccccc1)N1CCc2ccccc2C1.O=C(O)C(=O)O,-29.4%
12,CC(Oc1ccc2ccc(=O)oc2c1)C(=O)N1CCOCC1 (centres unmarked),7.76%
13,Cn1nc(-c2ccc(Cl)cc2)c2cc(C(=O)N3CCN(c4ccccn4)CC3)sc21,2.09%
14,Cc1cc(C)cc(Oc2ncnc3c2ncn3Cc2c(Cl)cccc2Cl)c1,-8.98%
15,COc1ccc(N2CCN(CC(O)COc3ccc4c(c3)CCC4)CC2)cc1.Cl (centres unmarked),-48.3%
16,COCCn1c(C)cc(C(=O)COC(=O)C2CC(=O)N(CCc3ccc(OC)c(OC)c3)C2)c1C (centres unmarked),-0.473%
17,CC(C)C[C@H](NC(=O)OC(C)(C)C)C(=O)N1CCC(C(=O)N[C@@H](Cc2c[nH]c3ccccc23)C(=O)O)CC1,18.8%
18,Cc1ccc2nc(-c3ccccc3)c(CN3CCN(c4ccccc4F)CC3)n2c1,1.85%
19,O=S(=O)(NC1CCCCC1Nc1ccccc1)c1ccccc1 (centres unmarked),6%
20,O=C1CN(C(=O)c2ccccc2)c2ccccc2N1,-3.79%
21,CC(=O)Oc1ccc(-c2cccc(C(=O)OCC(=O)N(C)c3ccccc3)c2)cc1,-8.25%
22,Cc1cccc(C)c1Nc1nnc(SCC(=O)NC2CCS(=O)(=O)C2)s1 (centres unmarked),1.96%
23,O=C(CSc1ccc2nnc(-c3cccnc3)n2n1)Nc1cccc(F)c1,-43.6%

row,Structure (SMILES),"hERG current change (%, negative = inhibition) at 10uM"
1,COc1ccc(-c2nc(CS(=O)(=O)CC(=O)NCc3ccc(F)cc3)c(C)o2)cc1,14.8%
2,Cc1cc(C)nc(/N=C(\N)Nc2ccc([N+](=O)[O-])cc2)n1,-25%
3,[Br-].c1ccc(-c2c[n+]3c(n2-c2ccccc2)CCC3)cc1,-3.72%
4,CCCCCCCCCCCCCCCC[n+]1cccc(C(=O)N(CC)CC)c1.[Br-],-69.7%
5,Cc1cc(/C=C2\SC(=S)N(C)C2=O)c(C)n1-c1cccc(O)c1,-29.9%
6,CCOc1ccc2[nH]c3c(NCCN(CC)CC)ncnc3c2c1,-71.6%
7,Cc1ccc(S(=O)(=O)Nc2ccc(Oc3cccnc3)nc2)cc1,8.86%
8,Cc1cc(N)n(-c2ccc(Cl)cc2)n1,2.71%
9,CCCn1cnc2cc(NCc3cccc(OC)c3)ccc21,-67.2%
10,COC(=O)C1=C(C)NC(C)=C(C(=O)OC)C1c1ccc(OC(=O)c2oc3ccccc3c2C)c(OC)c1,18.1%
11,C/C(=N\NC(=O)c1ccc([N+](=O)[O-])cc1)c1c(O)cc(C)oc1=O,34.8%
12,Cc1csc2c(N(C)CCO)ncnc12,14.7%
13,Cc1ccccc1NC(=O)CN1C(=O)C2C3CC(C(Br)C3Br)C2C1=O (centres unmarked),8.43%
14,COc1ccc(C(=O)NCc2nnc(SCC(=O)Nc3ccc4c(c3)OCO4)o2)cc1,8.82%
15,O=C(Nc1ccc2c(c1)OCO2)Oc1ccccc1,-7.16%
16,CCOc1ccc(CCNC(=O)COC(=O)Cn2cnc3c2c(=O)n(C)c(=O)n3C)cc1OCC,9.06%
17,CCCCCn1c(CN2CCN(c3cccc(Cl)c3)CC2)nc2c1c(=O)n(C)c(=O)n2C,-35.3%
18,O=C(c1ccccn1)N(Cc1ccco1)C1(C(=O)NC2CCCCC2)CCCCC1,10.9%
19,CCCCCCc1cc2cc(C(N)=O)c(=N)oc2cc1O,-59.8%
20,CCOC(=O)n1c(=O)oc2ccccc21,0.065%
21,Cc1ccc(C(=O)N2N=C(c3ccccc3O)CC2c2ccccc2)cc1 (centres unmarked),14.6%
22,Cc1ccc(S(=O)(=O)CCC(=O)OCC(=O)NC2CCS(=O)(=O)C2)cc1 (centres unmarked),11.1%
23,COC(=O)c1c(NC(=O)CC2Nc3ccccc3NC2=O)sc(C)c1C (centres unmarked),11.1%

row,Structure (SMILES),"hERG current change (%, negative = inhibition) at 10uM"
1,COc1cc(/C(C)=N/NC(=O)CN2CCN(S(=O)(=O)c3ccc(C)cc3)CC2)ccc1O,-11.6%
2,Cc1ccc(S(=O)(=O)N2CCOCC2)c(C)c1NS(C)(=O)=O,18.7%
3,CCN(CC)CCN(Cc1cc2cc3c(cc2[nH]c1=O)OCO3)C(=S)NCCOC,5.9%
4,S=c1[nH]nc(C2CCCCC2)n1/N=C/c1cccc(Br)c1,6.65%
5,CN(C)c1nc(SCCOC(=O)COc2ccc(Cl)cc2Cl)nc(N(C)C)n1,-10.2%
6,O=C(CCc1ccccc1)NC1CCCc2ccccc21 (centres unmarked),-2.04%
7,Cc1ccc(S(=O)(=O)Nc2c(NC3CCCCC3)c3ccccc3oc2=O)cc1,-33.9%
8,Cc1cc(Cl)ccc1OC(C)C(=O)O (centres unmarked),2.78%
9,CC(C)CN(CC(C)C)C(=S)Nc1ccc(Cl)cc1,13.6%
10,O=C1CCCN2N=C(SCC(=O)Nc3cccc(Cl)c3)SC2=N1,-8.34%
11,CCOc1ccc(C2C(C#N)=C(C)NC3=C2C(=O)c2ccccc23)cc1 (centres unmarked),-5.93%
12,Cc1sc2nc(C3CC3)nc(SCC(=O)N3CCc4ccccc4C3)c2c1C,17.2%
13,Cc1cccc(C(=O)N2CCC(=O)N(C(COCc3ccc(Cl)cc3)Cc3ccccc3)CC2)c1 (centres unmarked),-25.7%
14,COCCn1nnnc1CN(CCc1ccc(OC)c(OC)c1)Cc1cc2ccc(C)cc2[nH]c1=O,-42.8%
15,Fc1cccc(Cc2noc(CN3CCCCC3c3ccccn3)n2)c1 (centres unmarked),-7.9%
16,COc1ccc(C(=O)COC(=O)COc2ccc(C)c(C)c2)cc1,9.07%
17,O=C(NC(=S)Nc1ccccc1O)c1cncc(Br)c1,20.7%
18,CCOC(=O)C(NCc1ccccc1)(NC(=O)c1ccccc1)C(F)(F)F (centres unmarked),-3.91%
19,Cc1noc(/C=C/c2nn(C)cc2Cl)c1[N+](=O)[O-],16.6%
20,COc1ccc(CC(=O)Nc2ccc(-c3nnc(-c4ccc(C)cc4)o3)cc2)cc1,19.1%
21,CC(=O)NC1C(=O)N(C)c2ccc(Br)cc21 (centres unmarked),-2.6%
22,COc1ccccc1-c1nc(-c2ccc(Br)cc2)no1,12.3%
23,Cc1nn(-c2ccccc2)c(C)c1C(=O)Oc1ccccc1,-2.51%

row,Structure (SMILES),"hERG current change (%, negative = inhibition) at 10uM"
1,COc1ccc(/C=C2\SC(=S)N(CCC(=O)Nc3cccc(C(=O)O)c3)C2=O)cc1,20%
2,Nc1nonc1C(=Nc1ccccc1)NO,11.6%
3,COc1cc(-c2[nH]ncc2CN2CCN(Cc3cccs3)CC2)cc(OC)c1OC,-50.3%
4,Cc1ccc(-n2nnnc2SCC(=O)Nc2ccccc2-c2ccccc2)cc1C,-5%
5,CCCn1c(N)c(C(=O)CSc2nncs2)c(=O)[nH]c1=O,-2.75%
6,Cc1cc(NC(=O)c2ccc(S(=O)(=O)Nc3ccccc3)cc2)no1,5.21%
7,O=C(O)c1ccc(NS(=O)(=O)c2ccc3c(c2)C(=O)c2ccccc2C3=O)cc1,18.5%
8,CC(C)(C)c1ccccc1NC(=O)Cn1c(=O)cnc2ccccc21,3.94%
9,O=C(O)c1cccc2c1C(=O)c1ccc(Cl)cc1S2(=O)=O,20.3%
10,CCOC(=O)C1=C(COC(=O)CNC(=O)c2ccc(Cl)cc2Cl)NC(=O)NC1C (centres unmarked),-2.23%
11,CC(NS(=O)(=O)c1ccc([N+](=O)[O-])cc1)C(=O)NN (centres unmarked),26.7%
12,C[C@]12CCC(=O)CC1CCC1C2CC[C@]2(C)C(OC(=O)CCC(=O)O)CCC12 (some centres unmarked),16.8%
13,Cc1cc(NCc2cccnc2)nc(N)n1,6.71%
14,Cc1nonc1C(=O)N/N=C/c1ccc(O)c(O)c1,-29.7%
15,Cc1cc(NC(=O)CCC(=O)N(c2ccccc2C)C(C(=O)NC2CCCC2)c2ccccc2)no1 (centres unmarked),25.2%
16,CCCc1[nH]nc2c1C1(C(=O)N(C(C)C)c3ccccc31)C(C#N)=C(N)O2 (centres unmarked),14%
17,Cc1ccc(NC(=O)CSc2nc3ncc(Br)cc3[nH]2)cc1C,8.67%
18,COC(=O)Nc1nnc(-c2ccco2)s1,9.24%
19,C=CCn1c(=NC(=O)CC)n(C)c2ccccc21.Cl,16.8%
20,Nc1cccnc1Oc1ccc(F)cc1F,6.93%
